The list shows a part of the results. Each Rep nickase domain was tested in vitro on the same pool of single strands (1 h at 37 °C, 3 µM enzyme); the outer parts of the 90-letter strands are left off. Numbers give uncut DNA relative to the enzyme-free pool, as log2; more negative means more cut, near 0 not cut, and no call is made. The scaling is to total reads; values above 0 arise when much of the pool is cut.
Assays:
Experiment in all cases: uncleaved DNA left, log2 of reads against the no-enzyme library (log2 ratio); higher = less cleavage (more negative = more Rep cleavage of the k-mer); sequences stand for … in CTCGTCCG…ACCGGAGA
[1] = system: T1, Rep nickase domain of Muscovy duck circovirus
T1 sequence (residues 1-111, tag not shown): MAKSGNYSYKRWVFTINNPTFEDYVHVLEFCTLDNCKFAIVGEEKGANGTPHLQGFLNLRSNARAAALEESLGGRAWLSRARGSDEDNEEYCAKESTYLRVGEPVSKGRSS
Protocol: (§1)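 A pool of 90-nt single-stranded DNAs with seven random bases just before the constant AC of the nick site (name = the seven bases) was cut by 3 µM recombinant His6-SUMO-tagged Rep nickase domain (300 nM DNA, 50 mM HEPES pH 8.0, 50 mM NaCl, 1 mM MnCl2, 1 h, 37 °C, three replicates). Uncut DNA was amplified and sequenced.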

[2] = system: T2, Rep nickase domain of banana bunchy top virus
T2 sequence (residues 1-94, tag not shown): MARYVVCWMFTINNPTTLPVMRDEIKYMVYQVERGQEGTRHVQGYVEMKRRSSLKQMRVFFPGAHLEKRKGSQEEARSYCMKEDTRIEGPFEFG
Protocol: as §1

[3] = system: T3, Rep nickase domain of cabbage leaf curl virus
T3 sequence (residues 1-116, tag not shown): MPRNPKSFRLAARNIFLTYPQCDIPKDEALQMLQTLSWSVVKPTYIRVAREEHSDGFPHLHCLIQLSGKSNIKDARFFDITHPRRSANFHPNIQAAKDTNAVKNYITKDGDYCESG
Protocol: as §1

[4] = system: T4, Rep nickase domain of chickpea chlorotic dwarf virus
T4 sequence (residues 1-124, tag not shown): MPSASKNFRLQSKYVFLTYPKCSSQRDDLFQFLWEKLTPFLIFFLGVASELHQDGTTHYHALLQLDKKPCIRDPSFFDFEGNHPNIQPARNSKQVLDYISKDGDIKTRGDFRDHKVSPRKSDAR
Protocol: as §1

[5] = system: T5, Rep nickase domain of faba bean necrotic yellows virus
T5 sequence (residues 1-98, tag not shown): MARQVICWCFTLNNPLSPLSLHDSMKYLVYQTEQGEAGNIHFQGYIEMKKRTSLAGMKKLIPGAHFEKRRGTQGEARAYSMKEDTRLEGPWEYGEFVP
Protocol: as §1

[6] = system: T6, Rep nickase domain of maize striate mosaic virus
T6 sequence (residues 1-117, tag not shown): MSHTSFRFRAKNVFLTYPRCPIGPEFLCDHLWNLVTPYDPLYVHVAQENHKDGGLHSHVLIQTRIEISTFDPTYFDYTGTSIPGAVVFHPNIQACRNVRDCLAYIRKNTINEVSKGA
Protocol: as §1

[7] = system: T7, Rep nickase domain of porcine circovirus 2
T7 sequence (residues 2-116, tag not shown): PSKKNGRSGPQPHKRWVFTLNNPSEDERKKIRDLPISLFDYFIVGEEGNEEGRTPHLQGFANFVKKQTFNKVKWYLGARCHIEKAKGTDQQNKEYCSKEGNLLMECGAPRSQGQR
Protocol: as §1

[8] = system: T8, Rep nickase domain of tomato golden mosaic virus
T8 sequence (residues 1-124, tag not shown): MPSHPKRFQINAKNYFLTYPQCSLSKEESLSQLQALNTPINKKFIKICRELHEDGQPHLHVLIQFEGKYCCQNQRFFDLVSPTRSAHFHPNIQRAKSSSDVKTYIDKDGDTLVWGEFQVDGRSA
Protocol: as §1

[9] = system: T9, Rep nickase domain of tomato yellow leaf curl virus
T9 sequence (residues 1-136, tag not shown): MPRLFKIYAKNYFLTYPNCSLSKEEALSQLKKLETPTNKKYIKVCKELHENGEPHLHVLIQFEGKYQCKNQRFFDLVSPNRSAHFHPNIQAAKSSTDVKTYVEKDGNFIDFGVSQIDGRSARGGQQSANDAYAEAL
Protocol: as §1

[10] = system: T10, Rep nickase domain of wheat dwarf virus
T10 sequence (residues 1-137, tag not shown): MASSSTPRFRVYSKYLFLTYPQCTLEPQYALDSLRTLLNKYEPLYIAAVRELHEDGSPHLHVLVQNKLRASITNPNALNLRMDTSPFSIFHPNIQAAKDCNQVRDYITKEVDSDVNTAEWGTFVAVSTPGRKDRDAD
Protocol: as §1

Sequence	uncleaved DNA left (log2) [1]	uncleaved DNA left (log2) [2]	uncleaved DNA left (log2) [3]	uncleaved DNA left (log2) [4]	uncleaved DNA left (log2) [5]	uncleaved DNA left (log2) [6]	uncleaved DNA left (log2) [7]	uncleaved DNA left (log2) [8]	uncleaved DNA left (log2) [9]	uncleaved DNA left (log2) [10]
GTCTGAG	-0.0737	0.0289	0.0362	0.479	-0.105	0.24	0.0967	0.0458	-0.0258	-0.0184
AGGCCCT	-0.0899	-0.0414	0.731	1.42	-0.116	2.1	-0.143	-0.0044	0.0146	0.0955
GGAGATA	0.113	0.106	0.835	1.86	0.0682	2.14	0.247	0.092	0.113	0.202
CGACCTT	-0.0615	-0.0837	0.0829	-0.0538	0.0642	0.852	-0.102	-0.0257	0.0508	0.0414
GTCAAGT	-0.0152	0.0699	0.336	0.796	0.0507	1.41	0.0999	0.0988	0.117	0.144
AGTACGA	-0.0349	-0.047	-0.0258	-0.165	-0.0124	-0.663	0.0152	-0.0465	0.0313	-0.0358
ACCAGAT	0.0202	0.024	0.14	0.468	0.00285	-0.0467	0.0765	0.0529	-0.0305	-0.0713
CTTATCG	-0.0606	-0.0193	-0.859	-0.484	0.0174	-1.03	0.0688	-0.0814	-0.0402	-0.195
CTAATGA	-0.0606	0.0793	-0.00456	-0.105	0.0467	-0.878	0.103	-0.00377	0.017	-0.00499
ACTATAT	-0.0834	-0.0102	-0.136	-0.817	-0.0478	-0.749	-2.24	-0.0215	-0.154	-0.113
GTGTCAT	0.0121	0.0407	0.539	1.41	-0.122	2.05	0.0933	-0.0028	0.0588	0.17
TAGACCG	0.0437	0.0773	-0.521	-0.471	0.0908	-1.08	0.138	-0.0432	-0.015	-0.034
ATTTGAT	-0.274	-0.344	0.157	0.727	-0.0237	0.935	-1.54	0.0735	-0.0635	-0.0269
CTCCCGT	-0.123	-0.0506	-0.404	-0.984	-0.204	-0.71	-0.00359	-0.211	-0.0416	-0.06
AGCGGTA	-0.0153	0.16	0.121	0.318	0.0822	0.805	-1.15	0.123	0.165	0.0486
TCAAATT	-0.0572	-0.0763	-0.446	-2.69	-0.0162	-0.555	-0.703	-0.107	-0.0446	-0.018
TTAACCT	-0.123	0.0764	-0.196	-2.52	0.042	-0.344	-1.15	0.00901	0.129	0.0312
ATTTATC	0.043	0.131	0.224	0.437	0.0519	-0.0418	0.0431	0.0367	0.128	0.24
ACAGTCT	0.0887	0.0348	-0.416	-2.11	0.101	-0.833	0.103	0.0753	0.0201	-0.0154
CTCCTGT	-0.0168	-0.00765	-0.196	-0.684	0.0208	-0.601	-0.162	-0.214	-0.0569	0.002

Sequence	uncleaved DNA left (log2) [1]	uncleaved DNA left (log2) [2]	uncleaved DNA left (log2) [3]	uncleaved DNA left (log2) [4]	uncleaved DNA left (log2) [5]	uncleaved DNA left (log2) [6]	uncleaved DNA left (log2) [7]	uncleaved DNA left (log2) [8]	uncleaved DNA left (log2) [9]	uncleaved DNA left (log2) [10]
GGCGTCA	-0.164	-0.0106	0.414	1.15	-0.0962	1.6	0.0176	-0.0434	-0.0702	0.00262
GAAAGGG	0.113	-0.0134	0.0728	0.386	0.0711	-0.195	0.189	0.128	0.0633	0.11
CGAGAGA	-0.0209	0.131	0.163	0.641	0.00138	0.189	-0.00233	0.0153	-0.0337	0.0575
CTGTAGA	0.0199	-0.0626	-0.167	-0.378	0.0473	-0.997	0.17	-0.013	-0.0411	-0.0772
ACTAAGC	-0.0427	-0.0336	-0.178	-0.306	0.0379	-1.09	0.113	-0.0151	-0.0148	-0.126
TCGACAG	0.133	0.0402	0.081	0.645	0.105	1.17	0.143	-0.0498	-0.0663	0.0436
GGGGAAG	0.266	0.0346	0.936	1.97	0.0359	2.1	0.287	0.179	0.0883	0.191
ACGCATT	0.106	0.237	-0.208	-1.39	0.11	-0.606	-0.251	0.0608	0.164	0.173
CTATAAC	-0.0474	-0.0619	-0.567	-1.99	-0.0565	-0.884	-0.0481	-0.161	-0.197	-0.0733
TCCTCAG	-0.0805	-0.011	-0.433	-0.777	0.073	-0.945	0.142	0.0201	0.0956	-0.0683
AGACTGA	-0.00195	0.000643	0.0481	0.769	-0.0157	1.66	0.0396	-0.00294	-0.0506	0.00635
TCAGCGG	0.0093	0.0382	0.308	0.849	0.078	0.807	0.11	0.152	-0.13	-0.00768
ACTGGGC	-0.0496	-0.0943	-0.21	-0.0279	-0.062	-0.598	0.199	-0.0408	-0.0256	-0.171
TTAGCAC	0.0116	-0.0287	-0.0473	-0.27	0.0172	-0.844	0.0499	-0.0195	-0.0156	-0.0791
TCGGGCA	0.124	0.0865	0.532	0.917	-0.0221	1.14	-0.606	0.0349	-0.0829	-0.0135
TAGCGTG	-0.11	0.00765	-0.318	0.0314	-0.072	0.149	0.0558	-0.0511	-0.0729	-0.0663
GCAACAG	-0.00967	0.147	-0.35	-0.629	0.133	-0.728	0.268	0.0486	0.162	0.0108
CTTGTAT	-0.00943	-0.156	-0.155	-0.669	0.00943	-0.557	-0.254	-0.0784	0.0252	0.054
CACATCT	0.0375	-0.152	-0.62	-3.09	0.0915	-0.952	-1.18	0.00309	0.0469	-0.0231
TTAGCCC	-0.0465	-0.163	0.019	-0.425	-0.0613	-0.558	-0.154	-0.0657	-0.108	-0.152

Sequence	uncleaved DNA left (log2) [1]	uncleaved DNA left (log2) [2]	uncleaved DNA left (log2) [3]	uncleaved DNA left (log2) [4]	uncleaved DNA left (log2) [5]	uncleaved DNA left (log2) [6]	uncleaved DNA left (log2) [7]	uncleaved DNA left (log2) [8]	uncleaved DNA left (log2) [9]	uncleaved DNA left (log2) [10]
TGTATAA	-0.0475	-0.0442	-0.0105	0.183	-0.0537	0.379	0.00977	-0.0066	0.103	0.0516
AGCTAGG	0.193	0.202	0.0104	0.785	0.2	1.21	0.223	0.189	0.0345	0.156
GAGCTCG	0.00544	-0.00814	-0.435	-0.205	0.0668	-0.749	0.0909	0.0429	0.0283	-0.0163
ACGCTGG	0.132	0.0522	-0.299	-0.246	0.189	-0.795	0.245	0.169	0.0615	0.0286
AGGGGGC	0.104	0.0242	0.605	1.14	-0.0648	1.25	0.253	0.0553	-0.0288	-0.0382
CTCTCGC	-0.316	-0.0468	-0.741	-0.81	-0.192	-1.05	-0.122	-0.301	-0.236	-0.0352
CTAAAGA	-0.0208	0.0219	-0.115	-0.192	-0.0782	-0.95	0.177	-0.0471	0.0433	-0.0768
GGGTGTG	0.034	-0.0781	0.379	0.776	0.0145	0.731	0.134	0.119	0.0416	-0.0761
TGGGGCT	0.156	0.0996	0.851	1.77	0.0321	2.23	0.307	-0.0197	0.014	0.103
GGACGGA	0.035	0.0308	0.752	1.67	-0.0322	1.89	0.139	0.0191	0.0561	0.132
TCGTCTA	-0.145	-0.19	-0.125	-1.06	-0.0959	-0.194	-0.493	-0.156	-0.101	-0.186
TGTGGAT	0.0129	0.0374	0.312	1.42	-0.0343	1.86	0.0971	0.208	-0.199	-0.0373
TCGGGCT	-0.026	-0.149	0.212	0.324	-0.0733	0.474	0.0106	-0.0785	-0.125	-0.0651
GCGAATG	0.0379	0.0422	0.0287	0.649	-0.154	1.65	0.0489	-0.00281	-0.0984	0.0301
CATAAGC	0.0242	0.00855	-0.305	-0.646	0.0739	-1.29	0.153	-0.0599	0.0317	0.0497
AAACGCT	-0.0542	-0.0238	-0.961	-2.34	0.00864	-1.1	-0.121	-0.0556	-0.0189	-0.358
AGTTCAT	-0.0678	0.12	0.249	0.207	0.119	0.276	-3.13	-0.0339	0.203	0.17
AACATTG	0.109	0.0293	-0.651	-0.595	0.115	-1.02	0.179	0.0113	0.0652	-0.0266
ACAACGC	0.0248	0.0368	-0.368	-0.327	0.0612	-0.846	0.216	-0.0334	-0.0534	-0.0977
TGACTTG	0.0324	-0.235	-0.112	0.374	0.0439	1.08	-0.0538	-0.165	-0.134	-0.0239

Reference: the supplement of paper PMC7826260
